The other results are listed elsewhere or left out. Sequences were assembled here from the parent chain. Values near 0.05 are background.
B1: TEV protease; numbered along this chain (parent)
chain: MGESLFKGPRDYNPISSSICHLTNESDGHTTSLYGIGFGPFIITNKHLFRRNNGTLVVQSLHGVFKVKDTTTLQQHLVDGRDMIIIRMPKDFPPFPQKLKFREPQREERICLVTTNFQTKSMSSMVSDTSCTFPSGDGIFWKHWIQTKDGQCGSPLVSTRDGFIVGIHSASNFTNTNNYFTSVPKNFMELLTNQEAQQWVSGWRLNADSVLWGGHKVFMVKPEEPFQPVKEATQL

Variants of: B1
Test: raw area under fraction-flipped curve 0-4 h after induction (AUC4h, not background-subtracted), DNA-recorder readout of cleavage of the substrate (dimensionless); higher = more cleavage of the substrate by the protease variant
Conditions: temperature: 34 °C; time window: 0-4 h after rhamnose induction
Procedure: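 In vivo DNA recorder in E. coli TOP10(DE3) ΔrhaA at 34 °C. Each TEVp single-site mutant (parent TEVp 0) is paired with a single-site variant of the 7-mer TEVs (canonical ENLYFQ|S). The substrate sits between flexible linkers in a Bxb1-sfGFP-TEVs-SsrA fusion, so cleavage stabilises Bxb1 and speeds flipping of a recombination array, read by NGS. The value is the raw area under the fraction-flipped curve over 0-4 h after rhamnose induction (AUC4h), with ≥20 reads per time point. It is not background-subtracted; inactive controls average about 0.047.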
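Also: Bxb1 expression induced with 0.2% (w/v) L-rhamnose at OD600 near 0.5, cultures sampled hourly, flipped fraction per protease–substrate barcode pair counted by paired-end Illumina sequencing.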

Variant	area with substrate ENLYFAS	area with substrate ENLYFCS	area with substrate ENLYFDS	area with substrate ENLYFES	area with substrate ENLYFGS	area with substrate ENLYFIS	area with substrate ENLYFKS	area with substrate ENLYFMS	area with substrate ENLYFNS	area with substrate ENLYFPS	area with substrate ENLYFRS	area with substrate ENLYFSS	area with substrate ENLYFTS	area with substrate ENLYFFS	area with substrate ENLYFHS	area with substrate ENLYFWS	area with substrate ENLYFYS	area with substrate ENLYFLS	area with substrate ENLYFVS
K148W	0.0573	0.0662	0.0617	0.0626	0.0539	0.0549	0.0574	0.064	0.0684	0.063	0.0628	0.0589	0.0585						
I145Q	0.068	0.0481	0.0457	0.0517		0.0541	0.0651		0.0548	0.0589	0.049	0.0243	0.0539	0.0553	0.0422	0.0377	0.0548		
Q146I	0.0539				0.0531	0.0603		0.0836	0.0957	0.0567		0.0531				0.054	0.0587	0.0651	
D137Y	0.063	0.0464		0.0639		0.0538		0.0633	0.0672	0.0697			0.0496		0.0628	0.0509	0.0526	0.05	0.0522
T147I	0.06		0.0374	0.052		0.0534	0.043	0.0627	0.0579	0.0505	0.0334	0	0.0532	0.0705		0.0562	0.0603		
T147G	0.0641			0.0763	0.0656	0.0555	0.0534	0.0627	0.0637		0.0673		0.0792	0.0686					
T147P	0.0531	0.0565		0.0637		0.0587		0.0557	0.0605	0.0594	0.068	0.0672	0.062	0.0906	0.0587	0.0592	0.0576	0.0762	0.0675
S135G	0.058	0.0486	0.0202	0.0537		0.0439			0.0515	0.062	0.047	0.0613	0.0741	0.0659	0.0548	0.0501	0.0508		0.0566
S154L	0.0837	0.0452	0.0738	0.0644	0.0903	0.0485	0.0459	0.0859	0.0715		0.0631		0.0558				0.0562	0.047	
S154C	0.0897	0.0675	0.0739	0.0602	0.0521	0.0656	0.0618	0.0708	0.0642	0.0515		0.0568	0.0554	0.0699	0.0717	0.0556	0.0561	0.0609	0.0581
V126E	0.0557		0.0622	0.0618		0.035		0.0701	0.0597	0.0445	0.0855		0.0669	0.0567			0.0789		
W141C	0.0594	0.0534	0.0466	0.0695		0.0504	0.052	0.0627	0.0511	0.0635	0.0477		0.0467	0.0642	0.0453		0.0682		0.0496
T129F	0.0473	0.06			0.0754	0.0548	0.0614	0.0641			0.0645		0.044			0.0682			
T129V	0.0628	0.0786	0.0752	0.0583		0.0649	0.066	0.0769	0.0711	0.0582	0.0719	0.0647	0.0531	0.0677	0.0496				
I139P	0.0572		0.07	0.0314		0.0634	0.0568	0.0738	0.0674	0.0509				0.0778	0.0554	0.0689			0.0521
F133C	0.049	0.0542				0.0433		0.0594		0.0629	0.0686	0.0554							
F133V	0.0561	0.047		0.0691	0.0672	0.058	0.0609	0.0756	0.069	0.0672	0.0288	0.0627		0.0846	0.0514	0.0642	0.062	0.0624	0.059
Q151G	0.0622		0.0539	0.0611	0.0728	0.0572		0.0445		0.062		0.0549	0.0566				0.0504	0.0605	
G150P	0.0352	0.0696	0.0614	0.0575	0.0414	0.0532	0.0625	0.0681	0.0588	0.0576	0.0542		0.0601	0.0518	0.062		0.0585	0.0769	
H143D	0.0494	0.0435	0.0416	0.0595		0.0594	0.0564	0.0571		0.0573	0.0467			0.0606	0.0602		0.0609	0.0515	0.0634
K142P	0.0575	0.0428		0.0589	0.0576	0.0629	0.0575	0.0655	0.0493	0.0614	0.0547	0.0565	0.062	0.0636	0.0546	0.0609	0.0605		0.0721
T132Q	0.0543			0.058	0.0682	0.0527	0.0495	0.0548		0.0533		0.0611		0.0607	0.0436	0.0531	0.0375	0.075	0.0515
S130P	0.0416	0.039		0.0406	0.0439	0.0541		0.0465		0.0487	0.0401		0.0568		0.0418				
S130W	0.051	0.0764	0.0614	0.0679		0.0568	0.0615	0.0665	0.0637	0.0574	0.0552	0.0641		0.0671	0.0524	0.0456	0.0515		0.0534
S130D	0.067	0.048		0.0661		0.0576	0.053		0.0726	0.07		0.049	0.0582			0.0707	0.0636	0.054	0.052
S127M	0.0655		0.0499	0.0701		0.0596	0.067	0.0555	0.0662	0.063	0.0679		0.058	0.0734	0.0545	0.0632	0.0536		0.0543
